Data taken from the supplement of paper PMC4604168 (melanoma cell lines).
The list shows a part of the results. Many values rest on one well or one pass, so single values are uncertain.

How the values were obtained:
Assay in all cases: cell count relative to DMSO control; melanoma cells; higher = more viable cells
Conditions in all cases: library dose: standard library concentration; 72 h
SkMel28 = test system: SkMel28
SkMel2 = test system: SkMel2
SkMel30 = test system: SkMel30
SkMel5 = test system: SkMel5
UACC257 = test system: UACC257
UACC62 = test system: UACC62
WM115 = test system: WM115
WM1716 = test system: WM1716
WM1745 = test system: WM1745
WM3526 = test system: WM3526
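Note: cells treated in 1,536-well plates, then fixed and DAPI-stained, with nuclei counted from automated high-throughput microscope images.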

Structure (SMILES)	cell count (SkMel28) [%]	cell count (SkMel2) [%]	cell count (SkMel30) [%]	cell count (SkMel5) [%]	cell count (UACC257) [%]	cell count (UACC62) [%]	cell count (WM115) [%]	cell count (WM1716) [%]	cell count (WM1745) [%]	cell count (WM3526) [%]
CC1(C)CCC(c2ccc(Cl)cc2)=C(CN2CCN(c3ccc(C(=O)NS(=O)(=O)c4ccc(N[C@H](CCN5CCOCC5)CSc5ccccc5)c(S(=O)(=O)C(F)(F)F)c4)cc3)CC2)C1 + C[C@@H]1CCN(C(=O)CC#N)C[C@@H]1N(C)c1ncnc2[nH]ccc12 [CP690550] (first compound 2 µM, partner dose 5 µM)	96	95.7	69.3	103	35.6	97.2	58.5	70.8	8.37	88.1
O=C(/C=C/c1cccnc1)NCCCCC1CCN(C(=O)c2ccccc2)CC1 + CC1(C)CCC(c2ccc(Cl)cc2)=C(CN2CCN(c3ccc(C(=O)NS(=O)(=O)c4ccc(N[C@H](CCN5CCOCC5)CSc5ccccc5)c(S(=O)(=O)C(F)(F)F)c4)cc3)CC2)C1 [ABT263] (first compound 0.05 µM, partner dose 2 µM)	62.9	5.36	62.9	107	42.8	77.9	64.2	48.6	2.78	117
O=C(/C=C/c1cccnc1)NCCCCC1CCN(C(=O)c2ccccc2)CC1 + Cn1cncc1[C@@](N)(c1ccc(Cl)cc1)c1ccc2c(c1)c(-c1cccc(Cl)c1)cc(=O)n2C [tipifarnib] (first compound 0.05 µM, partner dose 0.05 µM)	52.3	27	101	76.2	87.6	73.3	60.9	70.1	118	84.2
Cc1ccc(Nc2nccc(N(C)c3ccc4c(C)n(C)nc4c3)n2)cc1S(N)(=O)=O [Pazopanib] + CS(=O)(=O)CCNCc1ccc(-c2ccc3ncnc(Nc4ccc(OCc5cccc(F)c5)c(Cl)c4)c3c2)o1 [lapatinib] (first compound 2 µM, partner dose 4 µM)	40	77.3	63	31.5	78.3	30.1	92.3	82.2	84.1	59.6
Cc1ccc(Nc2nccc(N(C)c3ccc4c(C)n(C)nc4c3)n2)cc1S(N)(=O)=O [Pazopanib] + CC(C)C[C@H](NC(=O)[C@H](Cc1ccccc1)NC(=O)c1cnccn1)B(O)O [Bortezomib] (first compound 2 µM, partner dose 0.005 µM)	20.6	34	35.5	24.8	95	39.1	19.7	11.5	17.6	23.6
CC1(C)CCC(c2ccc(Cl)cc2)=C(CN2CCN(c3ccc(C(=O)NS(=O)(=O)c4ccc(N[C@H](CCN5CCOCC5)CSc5ccccc5)c(S(=O)(=O)C(F)(F)F)c4)cc3)CC2)C1 + COc1ccc(C2=N[C@@H](c3ccc(Cl)cc3)[C@@H](c3ccc(Cl)cc3)N2C(=O)N2CCNC(=O)C2)c(OC(C)C)c1 [Nutlin-3] (first compound 2 µM, partner dose 0.5 µM)	50.6	79.3	81.6	57.3	30.3	47	67.5	48.3	2.3	75.3
O=C(/C=C/c1cccnc1)NCCCCC1CCN(C(=O)c2ccccc2)CC1 + OCc1c[nH]c2ccccc12 [Indole-3-carbinol] (first compound 0.05 µM, partner dose 4 µM)	96.6	12.8	109	86.1	95.2	88.3	96.1	69.9	92.9	111
O=C(/C=C/c1cccnc1)NCCCCC1CCN(C(=O)c2ccccc2)CC1 + CNC(=O)c1cc(Oc2ccc(NC(=O)Nc3ccc(Cl)c(C(F)(F)F)c3)cc2)ccn1 [sorafenib] (first compound 0.05 µM, partner dose 2 µM)	111	4.27	103	84.2	81.7	70.6	88.6	101	91.5	85.9
O=C(/C=C/c1cccnc1)NCCCCC1CCN(C(=O)c2ccccc2)CC1 + COCC[n+]1c2c(n(Cc3cnccn3)c1C)C(=O)c1ccccc1C2=O [YM155] (first compound 0.05 µM, partner dose 0.002 µM)	47	12.1	60.6	40.5	27.1	47.2	78.9	70	82.8	43.9
CC1(C)CCC(c2ccc(Cl)cc2)=C(CN2CCN(c3ccc(C(=O)NS(=O)(=O)c4ccc(N[C@H](CCN5CCOCC5)CSc5ccccc5)c(S(=O)(=O)C(F)(F)F)c4)cc3)CC2)C1 + CN(c1ncccc1CNc1nc(Nc2ccc3c(c2)CC(=O)N3)ncc1C(F)(F)F)S(C)(=O)=O [PF562271] (first compound 2 µM, partner dose 0.4 µM)	67.9	55.6	71.7	76.4	40.2	63.2	66.8	54.2	5.05	70.7
Cc1ccc(Nc2nccc(N(C)c3ccc4c(C)n(C)nc4c3)n2)cc1S(N)(=O)=O [Pazopanib] + C[C@@H](Oc1cc(-c2cnn(C3CCNCC3)c2)cnc1N)c1c(Cl)ccc(F)c1Cl [Crizotinib] (first compound 2 µM, partner dose 1 µM)	31.3	81.4	92.6	58.1	89.6	69.8	50.7	82	62.7	79.4
CC1(C)CCC(c2ccc(Cl)cc2)=C(CN2CCN(c3ccc(C(=O)NS(=O)(=O)c4ccc(N[C@H](CCN5CCOCC5)CSc5ccccc5)c(S(=O)(=O)C(F)(F)F)c4)cc3)CC2)C1 + C=C(c1ccc(C(=O)O)cc1)c1cc2c(cc1C)C(C)(C)CCC2(C)C [Bexarotene] (first compound 2 µM, partner dose 10 µM)	65.5	74.3	58.4	73.3	38.2	98.8	115	54.9	11.5	72.9
Cc1ccc(Nc2nccc(N(C)c3ccc4c(C)n(C)nc4c3)n2)cc1S(N)(=O)=O [Pazopanib] + COc1cc(Nc2ncc(F)c(Nc3ccc4c(n3)NC(=O)C(C)(C)O4)n2)cc(OC)c1OC [Tamatinib] (first compound 2 µM, partner dose 2 µM)	50.1	75.5	84.8	32.1	75.2	53.8	69.4	76.4	25.6	70.2
Cc1ccc(Nc2nccc(N(C)c3ccc4c(C)n(C)nc4c3)n2)cc1S(N)(=O)=O [Pazopanib] + Cc1nc(Nc2ncc(C(=O)Nc3c(C)cccc3Cl)s2)cc(N2CCN(CCO)CC2)n1 [dasatanib] (first compound 2 µM, partner dose 0.02 µM)	69.8	108	86.6	48.1	68.8	49	59.3	60.4	35.5	83.6
CC1(C)CCC(c2ccc(Cl)cc2)=C(CN2CCN(c3ccc(C(=O)NS(=O)(=O)c4ccc(N[C@H](CCN5CCOCC5)CSc5ccccc5)c(S(=O)(=O)C(F)(F)F)c4)cc3)CC2)C1 + C[C@]1(O)C[C@@H](c2nc(-c3ccc4ccc(-c5ccccc5)nc4c3)c3c(N)nccn32)C1 [OSI906] (first compound 2 µM, partner dose 2 µM)	82.7	56	61.8	55.5	49.7	45.4	109	66.9	2.2	75.4
CC1(C)CCC(c2ccc(Cl)cc2)=C(CN2CCN(c3ccc(C(=O)NS(=O)(=O)c4ccc(N[C@H](CCN5CCOCC5)CSc5ccccc5)c(S(=O)(=O)C(F)(F)F)c4)cc3)CC2)C1 + CCN(CC)CCNC(=O)c1c(C)[nH]c(/C=C2\C(=O)Nc3ccc(F)cc32)c1C [sunitinib] (first compound 2 µM, partner dose 2 µM)	19.7	28.9	12	32.7	33.8	19.1	17	71.9	4.1	42.8
Cc1ccc(Nc2nccc(N(C)c3ccc4c(C)n(C)nc4c3)n2)cc1S(N)(=O)=O [Pazopanib] + NC1(c2ccc(-c3nc4ccn5c(=O)[nH]nc5c4cc3-c3ccccc3)cc2)CCC1 [MK2206] (first compound 2 µM, partner dose 2 µM)	62.8	94.4	81.9	70.3	90.9	74.9	89.3	99.6	76.3	83.8
Cc1ccc(Nc2nccc(N(C)c3ccc4c(C)n(C)nc4c3)n2)cc1S(N)(=O)=O [Pazopanib] + Cn1c(Nc2ccc(C(F)(F)F)cc2)nc2cc(Oc3ccnc(-c4ncc(C(F)(F)F)[nH]4)c3)ccc21 [CHIR265] (first compound 2 µM, partner dose 0.4 µM)	28.3	62.3	63.5	42.1	88	36.4	40.6	63	54.1	52.7
CC1(C)CCC(c2ccc(Cl)cc2)=C(CN2CCN(c3ccc(C(=O)NS(=O)(=O)c4ccc(N[C@H](CCN5CCOCC5)CSc5ccccc5)c(S(=O)(=O)C(F)(F)F)c4)cc3)CC2)C1 + Nc1cccc2c1CN(C1CCC(=O)NC1=O)C2=O [lenalidomide] (first compound 2 µM, partner dose 5 µM)	91	73.7	59.7	90.6	40.4	67.2	102	66	4.48	86.5
Cc1ccc(Nc2nccc(N(C)c3ccc4c(C)n(C)nc4c3)n2)cc1S(N)(=O)=O [Pazopanib] + C[C@]1(O)C[C@@H](c2nc(-c3ccc4ccc(-c5ccccc5)nc4c3)c3c(N)nccn32)C1 [OSI906] (first compound 2 µM, partner dose 2 µM)	65.5	93	69.7	64.5	83	87.8	93	82.8	67.7	69.6
